Assay results as given in the RNAGym collection of RNA variant scans (doi:10.7554/elife.90254).
The source gives no read counts; variants with many changes may rest on few reads.

B1: LINE1-mini (parent)
chain: GGCAGAGCUCAACACAGCGUGGCAAAGUGGCUGUGGCUAGACUGCC

Variants of: B1
Experiment: self-cleavage, relative activity (ratio to wild type); higher = more cleavage; in vitro, sequencing; the parent is a self-cleaving ribozyme
With A25G G35C G40A the self-cleavage was 0.01.
Variant G5A A11U G21A G22C has a self-cleavage of 0.01.
C3U G21U A25U gave a self-cleavage of 0.34.
Work on C18U G29A U32G yielded a self-cleavage of 0.11.
With C3A A12U A14G G30A the self-cleavage was 0.21.
Work on A14C G21U G30C G40C C42G yielded a self-cleavage of 0.
G21U G36A A39G showed a self-cleavage of 0.05.
Variant G5A C18A G35A C46A has a self-cleavage of 0.14.
In the case of G17C A25C G40C C42U G44U, the self-cleavage is reported as 0.01.
Work on G2U G27U U28C yielded a self-cleavage of 0.01.
Work on A4U U9C A12G C23G A26G U43A yielded a self-cleavage of 0.01.
U9G G21C G22A G44U showed a self-cleavage of 0.07.
In the case of C15A A16U G19A U20C G30A U38A G40A, the self-cleavage is reported as 0.07.
A11G U20C U28A C31A showed a self-cleavage of 0.03.
Work on U9A A11G A16U G36U yielded a self-cleavage of 0.02.
Work on G5A A11G A12U U20A yielded a self-cleavage of 0.01.
In the case of A14G C15U C42A, the self-cleavage is reported as 0.07.
In the case of U20A G30U C42G, the self-cleavage is reported as 0.04.
U20G A26U C46G showed a self-cleavage of 1.05.
Variant G7U A12U C13A G40U has a self-cleavage of 0.03.
Variant A4G C10G C37A G40C has a self-cleavage of 0.01.
G7C A26C A41U U43G gave a self-cleavage of 0.05.
In the case of G30A A39G G44C, the self-cleavage is reported as 0.1.
With A4C C10A A14U C15U G17U U34G C37G the self-cleavage was 0.02.
C13A A16G U38A showed a self-cleavage of 0.
With G5U C10G A24C C37A the self-cleavage was 0.
For A11U U28C G29C, the self-cleavage was 0.03.
With C15A G19U C31U the self-cleavage was 0.03.
G1U G2U G30C A41C gave a self-cleavage of 0.
With C3U G40U U43A the self-cleavage was 0.24.
For G27U U32C C45G, the self-cleavage was 0.04.
Variant G21A G22A A25U C31G C45U has a self-cleavage of 0.1.
In the case of C37G C42A C46U, the self-cleavage is reported as 0.12.
In the case of G2U C10A C18G U28C C31G A39G, the self-cleavage is reported as 0.
G2U U32C G33U showed a self-cleavage of 0.04.
A26C C31A G40A gave a self-cleavage of 0.06.
For A25U G30U C42A, the self-cleavage was 0.08.
In the case of G1C G5U C45G, the self-cleavage is reported as 0.05.
C3A A14C U28A C37U showed a self-cleavage of 0.69.
For U9C C23A U43G G44U, the self-cleavage was 0.03.
With C3A C10U A39G the self-cleavage was 0.12.
Variant C3G G22A G27U G35U has a self-cleavage of 1.89.
A4U U32A G33U showed a self-cleavage of 0.07.
Work on C8A A16C G19C A41C yielded a self-cleavage of 0.13.
A4C G27C U28C C31A gave a self-cleavage of 0.02.
Variant G29A C31G U38G has a self-cleavage of 0.02.
G5A U20A G29A U38C gave a self-cleavage of 0.05.
G2A C8A A25G U34G C37A showed a self-cleavage of 0.37.
Variant A16C U20C G21C C23G C45G has a self-cleavage of 0.02.
With U9C C10U C15A G40C C46G the self-cleavage was 0.02.
In the case of G2A C8G G30U G36U, the self-cleavage is reported as 0.29.
G5C C8G A25U showed a self-cleavage of 0.06.
G7U U9C C15G showed a self-cleavage of 0.11.
C23U U28C C31A G35U C45U gave a self-cleavage of 0.02.
G2A A6U U43C gave a self-cleavage of 0.23.
For G7C A14U U34G G44A, the self-cleavage was 0.01.
Work on C10U C13U U38C U43C yielded a self-cleavage of 0.02.
Work on C13A G21A C31U yielded a self-cleavage of 0.09.
With A14C A25C G35C the self-cleavage was 0.04.
Work on C15A G17U G33C C45A yielded a self-cleavage of 0.02.
In the case of G17C U28G A41C, the self-cleavage is reported as 0.13.
For U20A G44A C45U, the self-cleavage was 0.05.
Work on A6G C8U A11U G40U yielded a self-cleavage of 0.01.
G1U A16C C46A gave a self-cleavage of 0.04.
With U20G C23U U32G A39C C42G the self-cleavage was 0.04.
Variant A4C U32C U34A has a self-cleavage of 0.09.
Work on A12C G17U G19A C37U U38A C46A yielded a self-cleavage of 0.01.
Variant C8A A11U C46A has a self-cleavage of 0.02.
In the case of U9A G17U A26U G27U G29A, the self-cleavage is reported as 0.03.
Work on G2U C3A G17U C37U yielded a self-cleavage of 0.08.
G2U C3A U38A C46A showed a self-cleavage of 0.09.
In the case of G2A A6C C10A G19U G30C, the self-cleavage is reported as 0.01.
With C18U G21A G27A C31G the self-cleavage was 0.13.
Variant C31U G35U G44U has a self-cleavage of 0.03.
With U9C U20G G21A A26U C31A the self-cleavage was 0.02.
U20A G22U C31U U38G showed a self-cleavage of 0.01.
Variant A4G C8U A11C A12U A24C C31U has a self-cleavage of 0.
Work on C3U C10A C15U U28G yielded a self-cleavage of 0.05.
Work on G5C C13A G21A G22U U43C C46G yielded a self-cleavage of 0.01.
In the case of G1A C3A G5U C13U, the self-cleavage is reported as 2.66.
In the case of A6U C10U G29U, the self-cleavage is reported as 0.14.
Work on G5C A16G G19C G36A yielded a self-cleavage of 0.03.
For C10U G27C U32C G40A, the self-cleavage was 0.04.
G2A C37U U38C showed a self-cleavage of 0.21.
Variant G19U A25C U34G has a self-cleavage of 0.32.
For G5U A16U G29U, the self-cleavage was 0.07.
In the case of A4C G30C G40C U43A, the self-cleavage is reported as 0.02.
G1C A11G C13A A14U C15A U34A G35C G36U gave a self-cleavage of 0.01.
Variant C8G A25U C31U has a self-cleavage of 0.06.
G1U C3A A25C U28A showed a self-cleavage of 0.26.
A4U G17U G19A U28C U32A showed a self-cleavage of 0.06.
C15A A16G G33C G44C gave a self-cleavage of 0.
A6G A16U G17C A26G C45U gave a self-cleavage of 0.07.
G2A C10G G33U C46G showed a self-cleavage of 0.04.
For A25G G33C G36C A39G U43G, the self-cleavage was 0.
C3A A4C G7C gave a self-cleavage of 0.11.
Variant G22U G27U U43G has a self-cleavage of 0.
With G1A A4G A16C A25U the self-cleavage was 0.08.
G1A G5U C18U showed a self-cleavage of 0.09.
For A4C C15U A26U, the self-cleavage was 0.01.
Work on A6G C18U C23G yielded a self-cleavage of 0.2.
Work on A6U A26U U34C C37G G44C yielded a self-cleavage of 0.06.
G1U G2U A11U A14U A16G C42U C46A gave a self-cleavage of 0.
In the case of U20A U28C G44U, the self-cleavage is reported as 0.04.
For U20A C23A A39U, the self-cleavage was 0.2.
With A14G C18A C42A the self-cleavage was 0.02.
With G1A A6G C31U A41G C42G the self-cleavage was 0.02.
For C10G A12C C18G G44A, the self-cleavage was 0.03.
In the case of G7A A11U C46G, the self-cleavage is reported as 0.01.
With C8A A11U C23U the self-cleavage was 0.02.
With C15G G17U A26U the self-cleavage was 0.07.
With G19U A24U G29A the self-cleavage was 0.55.
In the case of A6G U9G G33A, the self-cleavage is reported as 0.07.
G2A U9G C10U G17C showed a self-cleavage of 0.1.
Variant C18G G27A G40U has a self-cleavage of 0.39.
Variant G2U G21A G36A has a self-cleavage of 0.08.
Work on C15A U28C C46A yielded a self-cleavage of 0.02.
C3G A6C C23U C31U showed a self-cleavage of 0.16.
With U20G C37U U43C the self-cleavage was 0.01.
C18A A26G U32G A39U showed a self-cleavage of 0.
With G2C G17A G33A the self-cleavage was 0.04.
C15G U28C G29C G35A gave a self-cleavage of 0.02.
Variant G1A A11U G30U C46A has a self-cleavage of 0.13.
For C8G A16U G22A G29A A39C, the self-cleavage was 0.03.
G1A G7U C15U G19C U34A showed a self-cleavage of 0.49.
Work on G1U A11C G21U yielded a self-cleavage of 0.05.
C8U C10A A11U G19C C23A gave a self-cleavage of 0.02.
U9A C10U U28C showed a self-cleavage of 0.02.
Work on G1A A6C U38A C42G yielded a self-cleavage of 0.01.
C23U A24G G35A showed a self-cleavage of 0.16.
With G5A U9A C15G C23A A26C G29A G35A the self-cleavage was 0.09.
G1A A4G C18U G22U G30C C46A showed a self-cleavage of 0.26.
With C8U G19A G35A the self-cleavage was 0.31.
Work on G1U A12C G29U yielded a self-cleavage of 0.05.
In the case of C15U G40U U43C, the self-cleavage is reported as 0.15.
For A14G A25C U28C, the self-cleavage was 0.13.
Work on C15A A26C G33A yielded a self-cleavage of 0.04.
C18G G22A U32C G44U gave a self-cleavage of 0.04.
Work on G2A C3U C8A C10G U20A G40A yielded a self-cleavage of 0.02.
With U20C A26G G36C C46U the self-cleavage was 0.03.
Work on C3G A6C U9C G22C G33U G36A yielded a self-cleavage of 0.05.
G7C G27C G30A gave a self-cleavage of 0.22.
With G1A C13G G27A the self-cleavage was 0.03.
G21U A24G U34G G35A G36A gave a self-cleavage of 0.25.
For A26G G30C C31A, the self-cleavage was 0.13.
For C3G G19U G44U, the self-cleavage was 0.26.
Work on G21U U34C A39U yielded a self-cleavage of 0.6.
For C15A G30C G35U G36A A39G, the self-cleavage was 0.07.
With A4G C8G C13A C15A U34G C42G the self-cleavage was 0.07.
Work on G1C C3A G5A G17C A39G yielded a self-cleavage of 0.07.
In the case of G2A A11G G33C, the self-cleavage is reported as 0.02.
C8U C31U C42A gave a self-cleavage of 0.04.
Variant A14U G21A G22U has a self-cleavage of 1.43.
A14C G27U G35U A41C U43A gave a self-cleavage of 0.03.
G1C G36A A41U C46A gave a self-cleavage of 0.09.
Variant A14U G22U C23G G40C has a self-cleavage of 0.04.
With G7A C8G G36C C42A the self-cleavage was 0.04.
With C3U C10A C18A U32G U43G C46G the self-cleavage was 0.02.
Work on A14C A16U G19A G22C yielded a self-cleavage of 0.07.
A12U A14G U43A G44U gave a self-cleavage of 0.
C8A A16U A25U G27A showed a self-cleavage of 0.15.
Work on C3A G19U U20C yielded a self-cleavage of 0.15.
C23U G27C U28A G40C gave a self-cleavage of 0.04.
Work on C8U G29C A41U yielded a self-cleavage of 0.25.
With G2U U9C C42G the self-cleavage was 0.02.
For A11G C13U C45U, the self-cleavage was 0.05.
Work on C8A A14G G27A G33C C42U yielded a self-cleavage of 0.1.
